Laboratory results: publication PMC11354357, “Phase Separation of SARS-CoV-2 Nucleocapsid Protein with TDP-43 Is Dependent on C-Terminus Domains” (International Journal of Molecular Sciences, 2024)

Molecular target: T1, SARS-CoV-2 nucleocapsid protein (SARS-CoV-2)
T1 construct: SARS-CoV-2 nucleocapsid (N) protein, 419 amino acids, 46 kDa; commercially available recombinant protein (GenScript); the UniProt code is printed for the in silico modelling; Amine-coupled to the SPR chip; also called N protein; NCP
Test: SPR; Reichert 2SPR SR7500DC; N protein amine-coupled (EDC/NHS) on a carboxymethyl dextran chip (~5000 uRIU); TDP-43 proteins or GST injected as analytes at 35 uL/min, 2 min, 3 min dissociation, 22 °C; 10 mM Hepes pH 7.5, 150 mM NaCl, 0.1% Tween-20; steady-state analysis
Conditions: both partners purified

B1: N-terminus TDP-43 (TDP-43 […]) (domain or fragment)
chain: not shown
notes: the UniProt code is printed for the in silico modelling; also called N-terminus domain containing both the RRM1 and RRM2 domains; source: purified by the authors' lab as previously published [94]
Kd: > 167 µM
